Laboratory results from PMC12136788.
Some of the results follow.

B1: 70225431_70225551_570_CDS_ENSG00000138346_ENST00000358410|human|control|control (ssRNA)
RNA: GGGAGUUCUACAGUCCGACGAUCCAAAUGUCUUAUUUCUUGAAUUGUUUGAAAAGCAAGUUCUUGUAGCUUUUCUGGGGCAAAGCUAUUAUUUAUGGCUUUUUGAAACACCUCAUGGAGAACCGUACCAAUUAGCAUUUGGCGCAACAGAGGAUUGAGCAUCA
B2: chr3:58389919:58389920:+_ENSMUSG00000075700_ENSMUST00000107924|mus_hu|motif|central (ssRNA)
RNA: GGGAGUUCUACAGUCCGACGAUCGCUAGGAGCUUGCAUGCCAAAGAAAGCAAAAGGAUCCUUGCCAACAAUUAUUAAGCCGGUUAAUACUAGUUUGAAGACUGACAGGAAAGAUGCUAUGUGUCUAUAUAUUGGUUGAGGGAGCAACAGAGGAUUGAGCAUCA
B3: chr11:46405157:46405158:+_ENSG00000110492_ENST00000395566|hu_hu|hu_hu_hu_mus_False|78_108 (ssRNA)
RNA: GGGAGUUCUACAGUCCGACGAUCCCCUUAGGGGUGGGGGCACUUGGUGUGGGCGUGAAGGCAGGGCCGUGAUUGACAGAGCUGACAGGAAGACAAAAGGCACUGGUGGGUUAUAUCUUGGGCCUGUGGGAGAGGAGGGCUCCGCAACAGAGGAUUGAGCAUCA
B4: chr5:23024286:23024287:-_ENSMUSG00000062604_ENSMUST00000088392|mus_hu|motif|central (ssRNA)
RNA: GGGAGUUCUACAGUCCGACGAUCACACGCCGUGCUCCAGAUGUCCGCAGGGGUGCUGUACCCCGCUCCUAUUAAAACCUCGGUGGAGCGGUACUGACGCGUCUGGAUGUCUUCCGUGAAGUGUUUAUGCACCCAACAAGCAUUCAACAGAGGAUUGAGCAUCA
B5: chr3:9792807:9792808:+_ENSG00000114026_ENST00000339511|hu_mus|FALSE|FALSE (ssRNA)
RNA: GGGAGUUCUACAGUCCGACGAUCGGCCACUCUUUGGAAGUGGGAGUCUACAGAAGCCCAGUGGCUAUACAGCUGUGCCAGGCUGACAUCUAGCUGAAAGUACUUGUGUAGGGUUUCCAGCUCCUCUAGGGUGGGCCUGCUGACCAACAGAGGAUUGAGCAUCA
B6: chr3:88895943:88895944:-_ENSMUSG00000041263_ENSMUST00000052539|mus_hu|FALSE|FALSE (ssRNA)
RNA: GGGAGUUCUACAGUCCGACGAUCAGAAGAAGCUCCGGAGCAGGAAUCAGGAGAGCAGCAGAAGCUGUCCGGUGAGCAGGUGCCAGGGCCUGCUGAAGCCAGUGGGGAGCCCUGCUCCAGGGGGAUGAUACUGGGCUGAGGGUGCAACAGAGGAUUGAGCAUCA
B7: chr8:104447970:104447971:+_ENSG00000164934_ENST00000297579|hu_hu|hu_hu_hu_mus_False|18_18 (ssRNA)
RNA: GGGAGUUCUACAGUCCGACGAUCAUACACUUCCCUGCUUCGGCUCUUGUCCACAGGAAAGAUUCUAAUAGACUUAUCAAAGCUGGCAGACACAAAUUCCUUCCCAGUGGGAGAGUAAUCCACAUCAAGUACUGCAGACACGUGCAACAGAGGAUUGAGCAUCA
B8: chr9:121621712:121621713:+_ENSMUSG00000032526_ENSMUST00000035113|mus_hu|motif|central (ssRNA)
RNA: GGGAGUUCUACAGUCCGACGAUCUUUUGAAGUGCUGGUUGGACUGGCAUCUGCAAUGGUAGCCAAAUAAAUGAGAUUUCGGUGUAACACAUGCUGGUACUGCACGCACUCGUUCCCGCGGCCCUUGUUCUGAUACUCCACAAUCAACAGAGGAUUGAGCAUCA
B9: chr2:37230337:37230338:-_ENSMUSG00000075376_ENSMUST00000100143|mus_hu|FALSE|FALSE (ssRNA)
RNA: GGGAGUUCUACAGUCCGACGAUCAGAAAUAAAUAAGUUAACUAAGUCUACUUUCACUAGAUGUAUCAUUGUAGGAUCCUGCUAGUUUAAUAACUGAGUUGUUAAUUUUCUAUAGAAGCCAUUUAAAAUAGGAAAUGGCUCAGUCAACAGAGGAUUGAGCAUCA
B10: chrX:20248820:20248821:+_ENSMUSG00000001924_ENSMUST00000001989|mus_mus|mus_mus_mus_hu_True|8_68 (ssRNA)
RNA: GGGAGUUCUACAGUCCGACGAUCGGCGAAGUCCGUCACCACAAAGUCAGGUUCUGCCAGUGAGGCCGGCAAGGAUUUAAAGCUAAUCUUCUUAGGUACUUUGACCUGACUGACGAUGCCUCCACGGAUGUAGUCAGAGAAGUUCAACAGAGGAUUGAGCAUCA
B11: chr7:118215213:118215214:-_ENSMUSG00000005610_ENSMUST00000162415|mus_mus|FALSE|FALSE (ssRNA)
RNA: GGGAGUUCUACAGUCCGACGAUCAAGCUUAUUCCUUAGGUGCUUAGAAAGCAGAGCCAAAGAGUUGACACAAGGUCUGUAAUAGUAAAGGUCAGAUUAAGUUGACAGUUUGCAUUAGAUUGAUAGGGAAUAGUUCUGAGGUGACAACAGAGGAUUGAGCAUCA
B12: chr7:7679991:7679992:-_ENSG00000106399_ENST00000396682|hu_hu|hu_hu_hu_mus_False|28_98 (ssRNA)
RNA: GGGAGUUCUACAGUCCGACGAUCUGGGAUGAAUCUUUUCCAGCCUCCCCACGAAGCACACGGGCCGGUCGAUAUACUGUGGUAACAUGCUGGCGUUGACGCGCGCUCUGGGCAAGUGCAUUAUGUCCUCCAUGAUUCUGCCGCCAACAGAGGAUUGAGCAUCA
B13: chr7:135612788:135612789:-_ENSG00000105887_ENST00000393085|hu_hu|FALSE|FALSE (ssRNA)
RNA: GGGAGUUCUACAGUCCGACGAUCCAAGAGGUGAAAACAAAGGUAUCAAAACACCCUGUUGCACUACGUUGAUAGUUAUAGACUGAUAGAGUGCCCUCCAUUUUCAAUGAGGAUGUCUCCAUAUUUUAGUUCAGUGAUGUAAUACAACAGAGGAUUGAGCAUCA
B14: chr16:8621372:8621373:+_ENSMUSG00000057880_ENSMUST00000065987|mus_hu|FALSE|FALSE (ssRNA)
RNA: GGGAGUUCUACAGUCCGACGAUCGAUGCUACUUAGCUAUGGUUUUCUACCAUGAGCUUAUAUAUAGAUAGGUGUAGGUAUGUAGAUACAUUAAUGCUAUACACAAUUUUGCAUGGUUACUGAGCGUCAGUAAAAAUUAUGAAACAACAGAGGAUUGAGCAUCA

Each binder was assayed against T1, UNK ZnF1-3 (human, UniProt Q9C0B0 31-174) (assay: nsRBNS (natural sequence RNA bind-n-seq); RBNS binding buffer (assumed for nsRBNS): 25 mM Tris pH 7.5, 150 mM KCl, 3 mM MgCl2, 0.01% Triton X-100, 500 ug/ml BSA, 20 U/ml SUPERase-In, 4 C; UNK is unkempt and MSI1 is Musashi-1; names of the RNAs are library labels; protein concentration not given here; high values mean tight binding).
T1 sequence: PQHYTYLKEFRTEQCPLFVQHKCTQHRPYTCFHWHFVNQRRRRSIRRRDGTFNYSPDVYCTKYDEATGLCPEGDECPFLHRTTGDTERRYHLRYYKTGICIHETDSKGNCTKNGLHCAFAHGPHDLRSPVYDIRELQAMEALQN

Binder	binding signal [enrichment R]
B1	0.942
B2	1.39
B3	2.19
B4	0.856
B5	1.08
B6	1.61
B7	0.972
B8	1.24
B9	0.87
B10	1
B11	0.986
B12	0.746
B13	0.864
B14	0.892
